Reference: patent US4564619A, “Carbostyril derivative” (Otsuka Pharmaceutical Co., Ltd., priority 1982, dated 1986)
The name of at least one read-out is uncertain.

Test system: coronary artery
Assay: Increasing effect of blood flow in coronary artery, intra-arterial administration, anesthetized dog
Assay type: in vivo
Conditions: larger adenosin (30 or 100 micrograms) response = 100%

COC(=O)C1=C(C)NC(C)=C(C(=O)OCCCOc2ccc3[nH]c(=O)ccc3c2)C1c1cccc([N+](=O)[O-])c1 (stereo not drawn) [Compound 8, 6-{3-[2,6-Dimethyl-5-methoxycarbonyl-4-(3-nitrophenyl)-1,4-dihydropyridin-3-carboxy]-propoxy}carbostyril]
Increasing effect of blood flow in coronary artery (3 micrograms): 7% | Increasing effect of blood flow in coronary artery (10 micrograms): 7% | Increasing effect of blood flow in coronary artery (30 micrograms): 41% | Increasing effect of blood flow in coronary artery (100 micrograms): 90% | Increasing effect of blood flow in coronary artery (300 micrograms): 110%

COC(=O)C1=C(C)NC(C)=C(C(=O)OCCCOc2cccc3c2NC(=O)CC3)C1c1cccc([N+](=O)[O-])c1 (stereo not drawn) [Compound 9, 8-{3-[2,6-Dimethyl-5-methoxycarbonyl-4-(3-nitrophenyl)-1,4-dihydropyridin-3-carboxy]-propoxy}-3,4-dihydrocarbostyril]
Increasing effect of blood flow in coronary artery (3 micrograms): 19% | Increasing effect of blood flow in coronary artery (10 micrograms): 54% | Increasing effect of blood flow in coronary artery (30 micrograms): 88% | Increasing effect of blood flow in coronary artery (100 micrograms): 95% | Increasing effect of blood flow in coronary artery (300 micrograms): 85%

COC(=O)C1=C(C)NC(C)=C(C(=O)OCCOc2ccc3[nH]c(=O)ccc3c2)C1c1cccc([N+](=O)[O-])c1 (stereo not drawn) [Compound 10, 6-{2-[2,6-Dimethyl-5-methoxycarbonyl-4-(3-nitrophenyl)-1,4-dihydropyridin-3-carboxy]-ethoxy}carbostyril]
Increasing effect of blood flow in coronary artery (3 micrograms): 2% | Increasing effect of blood flow in coronary artery (10 micrograms): 6% | Increasing effect of blood flow in coronary artery (30 micrograms): 23% | Increasing effect of blood flow in coronary artery (100 micrograms): 42% | Increasing effect of blood flow in coronary artery (300 micrograms): 78%

CCCOc1ccc(OCCCOC(=O)C2=C(C)NC(C)=C(C(=O)OC)C2c2cccc([N+](=O)[O-])c2)c2c1NC(=O)CC2 (stereo not drawn) [Compound 11, 5-{3-[2,6-Dimethyl-5-methoxycarbonyl-4-(3-nitrophenyl)-1,4-dihydropyridin-3-carboxy]-propoxy}-8-propoxy-3,4-dihydrocarbostyril]
Increasing effect of blood flow in coronary artery (3 micrograms): 10% | Increasing effect of blood flow in coronary artery (10 micrograms): 21% | Increasing effect of blood flow in coronary artery (30 micrograms): 32% | Increasing effect of blood flow in coronary artery (100 micrograms): 56% | Increasing effect of blood flow in coronary artery (300 micrograms): 75%

C#CCOc1ccc(OCCCOC(=O)C2=C(C)NC(C)=C(C(=O)OC)C2c2cccc([N+](=O)[O-])c2)c2c1NC(=O)CC2 (stereo not drawn) [Compound 12, 5-{3-[2,6-Dimethyl-5-methoxycarbonyl-4-(3-nitrophenyl)-1,4-dihydropyridin-3-carboxy]-propoxy}-8-(2-propynyloxy)-3,4-dihydrocarbostyril]
Increasing effect of blood flow in coronary artery (3 micrograms): 6% | Increasing effect of blood flow in coronary artery (10 micrograms): 25% | Increasing effect of blood flow in coronary artery (30 micrograms): 52% | Increasing effect of blood flow in coronary artery (100 micrograms): 60% | Increasing effect of blood flow in coronary artery (300 micrograms): 76%

COC(=O)C1=C(C)NC(C)=C(C(=O)OCCOc2cccc3c2NC(=O)CC3)C1c1cccc([N+](=O)[O-])c1 (stereo not drawn) [Compound 13, 8-{2-[2,6-Dimethyl-5-methoxycarbonyl-4-(3-nitrophenyl)-1,4-dihydropyridin-3-carboxy]-ethoxy}-3,4-dihydrocarbostyril]
Increasing effect of blood flow in coronary artery (3 micrograms): 32% | Increasing effect of blood flow in coronary artery (10 micrograms): 59% | Increasing effect of blood flow in coronary artery (30 micrograms): 75%

COC(=O)C1=C(C)NC(C)=C(C(=O)OCCOc2ccc3c(c2)NC(=O)CC3)C1c1cccc([N+](=O)[O-])c1 (stereo not drawn) [Compound 14, 7-{2-[2,6-Dimethyl-5-methoxycarbonyl-4-(3-nitrophenyl)-1,4,-dihydropyridin-3-carboxy]-ethoxy}-3,4-dihydrocarbostyril]
Increasing effect of blood flow in coronary artery (3 micrograms): 2% | Increasing effect of blood flow in coronary artery (10 micrograms): 11% | Increasing effect of blood flow in coronary artery (30 micrograms): 28% | Increasing effect of blood flow in coronary artery (100 micrograms): 64% | Increasing effect of blood flow in coronary artery (300 micrograms): 100%

COC(=O)C1=C(C)NC(C)=C(C(=O)OCCCCOc2ccc3[nH]c(=O)ccc3c2)C1c1cccc([N+](=O)[O-])c1 (stereo not drawn) [Compound 15, 6-{4-[2,6-Dimethyl-5-methoxycarbonyl-4-(3-nitrophenyl)-1,4-dihydropyridin-3-carboxy]-butoxy}carbostyril]
Increasing effect of blood flow in coronary artery (3 micrograms): 4% | Increasing effect of blood flow in coronary artery (10 micrograms): 35% | Increasing effect of blood flow in coronary artery (30 micrograms): 71% | Increasing effect of blood flow in coronary artery (100 micrograms): 87% | Increasing effect of blood flow in coronary artery (300 micrograms): 88%

COC(=O)C1=C(C)NC(C)=C(C(=O)OCCCCOc2ccc3c(c2)CCC(=O)N3)C1c1cccc([N+](=O)[O-])c1 (stereo not drawn) [Compound 16, 6-{4-[2,6-Dimethyl-5-methoxycarbonyl-4-(3-nitrophenyl)-1,4-dihydropyridin-3-carboxy]-butoxy}-3,4-dihydrocarbostyril]
Increasing effect of blood flow in coronary artery (3 micrograms): 27% | Increasing effect of blood flow in coronary artery (10 micrograms): 61% | Increasing effect of blood flow in coronary artery (30 micrograms): 105% | Increasing effect of blood flow in coronary artery (100 micrograms): 119%

COC(=O)C1=C(C)NC(C)=C(C(=O)OCCCCOc2cccc3c2CCC(=O)N3)C1c1cccc([N+](=O)[O-])c1 (stereo not drawn) [Compound 17, 5-{4-[2,6-Dimethyl-5-methoxycarbonyl-4-(3-nitrophenyl)-1,4-dihydropyridin-3-carboxy]-butoxy}-3,4-dihydrocarbostyril]
Increasing effect of blood flow in coronary artery (3 micrograms): 18% | Increasing effect of blood flow in coronary artery (10 micrograms): 28% | Increasing effect of blood flow in coronary artery (30 micrograms): 75% | Increasing effect of blood flow in coronary artery (100 micrograms): 95%

C=CCOc1ccc(OCCCCOC(=O)C2=C(C)NC(C)=C(C(=O)OC)C2c2cccc([N+](=O)[O-])c2)c2c1NC(=O)CC2 (stereo not drawn) [Compound 19, 5-{4-[2,6-Dimethyl-5-methoxycarbonyl-4-(3-nitrophenyl)-1,4-dihydropyridin-3-carboxy]-butoxy}-8-alloyloxy-3,4-dihydrocarbostyril]
Increasing effect of blood flow in coronary artery (3 micrograms): 38% | Increasing effect of blood flow in coronary artery (10 micrograms): 47% | Increasing effect of blood flow in coronary artery (30 micrograms): 83% | Increasing effect of blood flow in coronary artery (100 micrograms): 71%

COC(=O)C1=C(C)NC(C)=C(C(=O)OCCOc2ccc3c(c2)CCC(=O)N3)C1c1ccccc1[N+](=O)[O-] (stereo not drawn) [Compound 21, 6-{2-[2,6-Dimethyl-5-methoxycarbonyl-4-(2-nitrophenyl)-1,4-dihydropyridin-3-carboxy]-ethoxy}-3,4-dihydrocarbostyril]
Increasing effect of blood flow in coronary artery (3 micrograms): 12% | Increasing effect of blood flow in coronary artery (10 micrograms): 31% | Increasing effect of blood flow in coronary artery (30 micrograms): 72% | Increasing effect of blood flow in coronary artery (100 micrograms): 93%

COC(=O)C1=C(C)NC(C)=C(C(=O)OCC(COc2ccc3c(c2)CCC(=O)N3)OC(C)=O)C1c1cccc([N+](=O)[O-])c1 (stereo not drawn) [Compound 23, 6-{3-[2,6-Dimethyl-5-methoxycarbonyl-4-(3-nitrophenyl)-1,4-dihydropyridin-3-carboxy]-2-acetoxypropoxy}-3,4-dihydrocarbostyril]
Increasing effect of blood flow in coronary artery (10 micrograms): 6% | Increasing effect of blood flow in coronary artery (30 micrograms): 63% | Increasing effect of blood flow in coronary artery (100 micrograms): 136% | Increasing effect of blood flow in coronary artery (300 micrograms): 141%

COC(=O)C1=C(C)NC(C)=C(C(=O)OCCCCOc2ccc3[nH]c(=O)ccc3c2)C1c1ccccc1C(F)(F)F (stereo not drawn) [Compound 24, 6-{4-[2,6-Dimethyl-5-methoxycarbonyl-4-(2-trifluoromethylphenyl)-1,4-dihydropyridin-3-carboxy]butoxy}carbostyril]
Increasing effect of blood flow in coronary artery (3 micrograms): 9% | Increasing effect of blood flow in coronary artery (10 micrograms): 75% | Increasing effect of blood flow in coronary artery (30 micrograms): 192% | Increasing effect of blood flow in coronary artery (100 micrograms): 239% | Increasing effect of blood flow in coronary artery (300 micrograms): 225%

COC(=O)C1=C(C)NC(C)=C(C(=O)OCCCCOc2ccc3c(c2)CCC(=O)N3)C1c1ccccc1C(F)(F)F (stereo not drawn) [Compound 25, 6-{4-[2,6-Dimethyl-5-methoxycarbonyl-4-(2-trifluoromethylphenyl)-1,4-dihydropyridin-3-carboxy]butoxy}-3,4-dihydrocarbostyril]
Increasing effect of blood flow in coronary artery (3 micrograms): 28% | Increasing effect of blood flow in coronary artery (10 micrograms): 106% | Increasing effect of blood flow in coronary artery (30 micrograms): 244% | Increasing effect of blood flow in coronary artery (100 micrograms): 269%

COC(=O)C1=C(C)NC(C)=C(C(=O)OCCCCOc2ccc3c(c2)CCC(=O)N3)C1c1ccccc1SC (stereo not drawn) [Compound 26, 6-{4-[2,6-Dimethyl-5-methoxycarbonyl-4-(2-methylthiophenyl)-1,4-dihydropyridin-3-carboxy]butoxy}-3,4-dihydrocarbostyril]
Increasing effect of blood flow in coronary artery (10 micrograms): 8% | Increasing effect of blood flow in coronary artery (30 micrograms): 56% | Increasing effect of blood flow in coronary artery (100 micrograms): 300% | Increasing effect of blood flow in coronary artery (300 micrograms): 386%

COC(=O)C1=C(C)NC(C)=C(C(=O)OCCCCOc2ccc3c(c2)CCC(=O)N3)C1c1ccccc1Cl (stereo not drawn) [Compound 27, 6-{4-[2,6-Dimethyl-5-methoxycarbonyl-4-(2-chlorophenyl)-1,4-dihydropyridin-3-carboxy]-butoxy}-3,4-dihydrocarbostyril]
Increasing effect of blood flow in coronary artery (3 micrograms): 6% | Increasing effect of blood flow in coronary artery (10 micrograms): 53% | Increasing effect of blood flow in coronary artery (30 micrograms): 178% | Increasing effect of blood flow in coronary artery (100 micrograms): 128%

COC(=O)C1=C(C)NC(C)=C(C(=O)OCCCCOc2ccc3c(c2)CCC(=O)N3)C1c1ccccc1 (stereo not drawn) [Compound 28, 6-[4-(2,6-Dimethyl-5-methoxycarbonyl-4-phenyl-1,4-dihydropyridin-3-carboxy)butoxy]-3,4-dihydrocarbostyril]
Increasing effect of blood flow in coronary artery (3 micrograms): 12% | Increasing effect of blood flow in coronary artery (10 micrograms): 44% | Increasing effect of blood flow in coronary artery (30 micrograms): 89% | Increasing effect of blood flow in coronary artery (100 micrograms): 94% | Increasing effect of blood flow in coronary artery (300 micrograms): 74%

COC(=O)C1=C(C)NC(C)=C(C(=O)OCCCCOc2ccc3c(c2)CCC(=O)N3)C1c1ccccc1C (stereo not drawn) [Compound 29, 6-{4-[2,6-Dimethyl-5-methoxycarbonyl-4-(2-methylphenyl-1,4-dihydropyridin-3-carboxy)]-butoxy}-3,4-dihydrocarbostyril]
Increasing effect of blood flow in coronary artery (3 micrograms): 25% | Increasing effect of blood flow in coronary artery (10 micrograms): 164% | Increasing effect of blood flow in coronary artery (30 micrograms): 181% | Increasing effect of blood flow in coronary artery (100 micrograms): 170%
